Assay results reported in PubChem BioAssay (NCATS).
This is one part of the list. These are further read-outs of the screen, such as a control signal, another cell line or another target. No call is given for them. Compounds called inactive in the main read-out are mostly missing here. The note in brackets gives the kind of curve behind each potency; many fits are weak.

Assay: qHTS Assay for Lipid Storage Modulators (AID 1519)
Settings: Drosophila S3 cells, BODIPY lipid droplet/cell ratio, laser cytometry, cells loaded with oleic acid
In short: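 Cells seeded at 5,000 per well were treated with compounds over a concentration series and loaded with oleic acid (400 uM, as added). Lipid droplet fluorescence (488 nm excitation, 500-530 nm channel) was read by laser-scanning cytometry and normalized to 20 uM Triacsin C.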

[1] = measured here: cell count channel max response
[2] = measured here: lipid (BODIPY) channel AC50
[3] = measured here: lipid channel max response
[4] = measured here: cell number channel AC50
Tags tell the direction and shape of the fitted curve.

Row | Compound | max response [1] | AC50 [2] | max response [3] | AC50 [4]
1 | CN(C)c1ccc(-c2nc(NC3CCNCC3)c3ccccc3n2)cc1 | -22.1% | 39.8 µM [falling, single point] | -54.5% | 
2 | CN(C)C(=O)c1ccc(-c2nc(Nc3ccccc3)c3ccccc3n2)cc1 | 7.79% | 0.0562 µM [rising, full curve] | 11% | 
3 | COc1cc2nc(N(C)CCCNC(=O)[C@@H]3CCCO3)nc(N)c2cc1OC | 27.2% | 1.78 µM [rising, partial curve, poor fit] | 30.2% | 
4 | O=c1c(-c2ccccc2)nc2cnc(Oc3ccccc3)nc2n1C[C@H]1CCCO1 | -0.717% | 28.2 µM [falling, single point] | -31.6% | 
5 | COc1ccc(C(=O)N2CCC3(CCCN(Cc4cc(C(F)(F)F)cc(C(F)(F)F)c4)C3)CC2)cc1 | 9.87% | 0.708 µM [rising, full curve, poor fit] | 8.69% | 
6 | CCNc1ncc2nc(-c3ccc(OC)cc3)c(=O)n(Cc3cccs3)c2n1 | 12.6% | 0.282 µM [rising, full curve, poor fit] | 14.5% | 
7 | CC1CC2C3CCC4=CC(=O)C=C[C@@]4(C)[C@]3(F)C(O)C[C@]2(C)[C@]1(O)C(=O)COP(=O)(O)O (stereo partly specified) | 24.1% | 20 µM [rising, partial curve] | 38.1% | 
8 | Cc1nc2cnc(N3CCNCC3)nc2n(-c2ccccc2)c1=O | 32.7% | 35.5 µM [rising, partial curve, poor fit] | 37.5% | 
9 | O=c1cnc2cnc(Oc3ccccc3)nc2n1CCc1ccccc1 | 17.6% | 0.02 µM [rising, full curve, poor fit] | 26.6% | 
10 | CNc1ncncc1-c1ccccc1C | 28% | 5.01 µM [rising, partial curve, poor fit] | 35.1% | 
11 | CN1CCc2c(c3ccccc3n2Cc2ccccc2)C1 | 23% | 31.6 µM [rising, single point] | 38.1% | 
12 | COc1ccc(NC(=O)N2CCCC3(CCN(C(=O)c4ccc(OC)cc4)CC3)C2)cc1 | 24.1% | 7.94 µM [rising, full curve, poor fit] | 34.6% | 
13 | O=c1c(-c2cc(F)cc(F)c2)nc2cnc(N3CCOCC3)nc2n1-c1ccccc1 | 22.1% | 0.0178 µM [rising, full curve, poor fit] | 28.9% | 
14 | CCOc1ccc2nc3cc(N)ccc3c(N)c2c1 | 9.67% | 6.31 µM [rising, partial curve, poor fit] | 33.2% | 
15 | O=C(Nc1cccc(F)c1)N1CCCC2(CCN(C(=O)c3cccc(F)c3)CC2)C1 | 17.6% | 0.158 µM [rising, full curve, poor fit] | 30.8% | 
16 | CN1CCN(c2ncc3nc(-c4ccc(Cl)cc4)c(=O)n(C)c3n2)CC1 | 7.92% | 1.26 µM [rising, partial curve, poor fit] | 16.3% | 
17 | O=C1OC(C(O)CO)C(O)=C1O (stereo unspecified) | 25.4% | 15.8 µM [rising, partial curve, poor fit] | 37.6% | 
18 | Cn1c(=O)c(-c2ccc(Cl)cc2)nc2cnc(Oc3ccccc3)nc21 | 11.8% | 0.501 µM [rising, full curve, poor fit] | 15.4% | 
19 | CN(Cc1ccco1)c1cc(-c2cccnc2)ncn1 | 14.9% |  | 21.1% | 3.98 µM [rising, single point]
20 | COc1ccc(-c2nc3cnc(Nc4cccc(OC)c4)nc3n(Cc3cccs3)c2=O)cc1 | 34.8% |  | -11% | 5.01 µM [rising, partial curve]
21 | COC(=O)CCC(C)C1CCC2C3C(C[C@H](O)C12C)C1(C)CC[C@@H](O)CC1C[C@H]3O (stereo partly specified) | 27.4% | 15.8 µM [rising, full curve, poor fit] | 29.8% | 
22 | COc1cccc(Nc2ncc3ncc(=O)n(Cc4ccc(F)cc4)c3n2)c1 | 5.57% | 0.0708 µM [rising, full curve] | 2.76% | 
23 | CN(C)c1ncc2nc(-c3ccc(Cl)cc3)c(=O)n(-c3ccccc3)c2n1 | 24.7% | 2.82 µM [rising, full curve, poor fit] | 32% | 
24 | CCC(=O)O[C@H]1C(O[C@@H]2C(C)[C@H](O[C@H]3C[C@@](C)(OC)C(O)C(C)O3)C(C)C(=O)OC(CC)[C@@](C)(O)C(O)[C@H](C)C(=O)C(C)C[C@]2(C)O)OC(C)CC1N(C)C (stereo partly specified) | 11.3% | 0.708 µM [rising, partial curve] | 33.5% | 
25 | NC(C(=O)O)C(O)C(=O)O (stereo unspecified) | 29.8% | 39.8 µM [rising, single point] | 46.5% | 
26 | CN(C)C(=O)c1ccc(-c2nc(Nc3ccc(F)cc3)c3ccccc3n2)cc1 | -9.41% | 3.55 µM [rising, partial curve, poor fit] | -0.181% | 

Row | Compound | max response [1] | AC50 [2] | max response [3] | AC50 [4]
27 | CC1CC2C(C(O)C[C@]3(C)C2CC[C@]3(O)C(=O)CO)[C@]2(C)C=CC(=O)C=C12 (stereo partly specified) | 22.6% | 39.8 µM [rising, single point] | 40% | 
28 | COc1ccc(Oc2ncc3nc(-c4cccs4)c(=O)n(Cc4cccs4)c3n2)cc1 | 27.2% |  | -0.352% | 0.282 µM [rising, full curve, poor fit]
29 | CCNc1ncc2nc(-c3ccc(F)cc3)c(=O)n(CCC#N)c2n1 | 17.3% | 0.2 µM [rising, full curve, poor fit] | 27.1% | 
30 | O=C(c1csnn1)N1CCC2(CC1)CN(c1cccc(-c3ccccc3)c1)C2 | -9.66% | 0.141 µM [rising, partial curve, poor fit] | -7.67% | 
31 | FC(F)(F)c1ccccc1-c1cncnc1NCCc1cnc[nH]1 | 8.95% | 0.891 µM [rising, full curve, poor fit] | 16.9% | 
32 | CCNc1ncc2nc(-c3ccc(F)cc3)c(=O)n(C[C@H]3CCCO3)c2n1 | -13.8% | 31.6 µM [falling, single point] | -44.8% | 
33 | c1ccc(CNc2ccnc(-c3ccc4c(c3)OCO4)n2)cc1 | -6.38% | 1 µM [rising, single point] | -0.434% | 
34 | COCCn1c(=O)c(-c2ccc(Cl)cc2)nc2cnc(N3CCOCC3)nc21 | 21.1% | 2.51 µM [rising, full curve, poor fit] | 24.3% | 
35 | c1cncc(CNc2cc(-c3ccoc3)ncn2)c1 | 35.8% | 20 µM [rising, partial curve, poor fit] | 42.1% | 
36 | CCN1CCN(c2cc3c(cc2F)c(=O)c(C(=O)O)cn3C2CC2)CC1 | 17% | 3.16 µM [rising, partial curve] | 32.7% | 
37 | O=c1c(-c2ccc(Cl)cc2)nc2cnc(N3CCOCC3)nc2n1C1CC1 | 28% | 1.78 µM [rising, partial curve, poor fit] | 38.2% | 
38 | COc1ccc(CNc2nc(-c3cccnc3)nc3ccccc23)c(OC)c1 | 13% | 0.0355 µM [rising, full curve, poor fit] | 15.8% | 
39 | Cc1cnc(CNc2ncncc2-c2ccoc2)cn1 | 26.1% | 31.6 µM [rising, partial curve, poor fit] | 31% | 
40 | FC(F)(F)c1ccccc1-c1cncnc1NCc1cccs1 | 18.3% | 2.24 µM [rising, full curve, poor fit] | 23% | 
41 | N#Cc1cccc(-c2nc(Nc3ccccc3)c3ccccc3n2)c1 | 6.01% | 3.55 µM [rising, partial curve, poor fit] | 15.2% | 
42 | CC(C)[N+]1(C)C2CCC1CC(OC(=O)C(CO)c1ccccc1)C2 (stereo unspecified) | 21.8% | 39.8 µM [rising, single point] | 35.6% | 
43 | COc1cccc(Nc2ncc3nc(-c4ccc(Cl)cc4)c(=O)n(C[C@H]4CCCO4)c3n2)c1 | -20.4% | 39.8 µM [falling, single point] | -41.8% | 
44 | COc1ccc(CNc2ncnc3ccc(-c4c(C)noc4C)cc23)c(OC)c1 | 17.6% | 3.16 µM [rising, partial curve, poor fit] | 11.3% | 
45 | N#Cc1cccc(NC(=O)N2CCCC3(CCN(C(=O)c4cnccn4)CC3)C2)c1 | 15.2% | 0.0224 µM [rising, full curve, poor fit] | 29.8% | 
46 | N[C@@H](C(=O)O)c1ccc(O)c(C(=O)O)c1 | 3.9% | 14.1 µM [rising, single point] | 7.87% | 
47 | COc1ccc(-c2nc3cnc(OC)nc3n(-c3ccccc3)c2=O)cc1 | 46.6% |  | 4.02% | 25.1 µM [rising, single point]
48 | O=c1c(CCc2ccccc2)nc2cnc(Oc3ccccc3)nc2n1C1CC1 | 4.38% | 2.82 µM [rising, single point] | 8.48% | 
49 | CN(C)CCC(c1ccccc1)c1ccccn1 (stereo unspecified) | 11.5% | 7.08 µM [falling, full curve, poor fit] | 4.75% | 
50 | COc1ccc(C[C@H](N)C(=O)N[C@@H]2[C@H](O)[C@H](n3cnc4c(N(C)C)ncnc43)O[C@@H]2CO)cc1 | -13.6% | 12.6 µM [falling, partial curve, poor fit] | -41.6% | 
51 | O=C(Nc1cccc(F)c1)N1CCC2(CC1)CCN(C(=O)c1ccco1)CC2 | 14.5% | 0.01 µM [rising, full curve, poor fit] | 20% | 
52 | O=C(c1csnn1)N1CCC[C@@]2(CCN(c3ccccc3)C2)C1 | 3.62% |  | 8.41% | 2.24 µM [rising, partial curve, poor fit]
